This passage reports binding results from article PMC8539892.

By UniProt entry, the sequences of proteins in these tests, tags left out. Where a name states a change or a piece, a line headed by the entry shows the natural chain unless it says otherwise. Residues count along the entry.
UniProt P06492, residues 177-240: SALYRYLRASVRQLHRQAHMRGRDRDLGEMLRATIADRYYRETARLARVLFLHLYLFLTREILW
UniProt Q14004: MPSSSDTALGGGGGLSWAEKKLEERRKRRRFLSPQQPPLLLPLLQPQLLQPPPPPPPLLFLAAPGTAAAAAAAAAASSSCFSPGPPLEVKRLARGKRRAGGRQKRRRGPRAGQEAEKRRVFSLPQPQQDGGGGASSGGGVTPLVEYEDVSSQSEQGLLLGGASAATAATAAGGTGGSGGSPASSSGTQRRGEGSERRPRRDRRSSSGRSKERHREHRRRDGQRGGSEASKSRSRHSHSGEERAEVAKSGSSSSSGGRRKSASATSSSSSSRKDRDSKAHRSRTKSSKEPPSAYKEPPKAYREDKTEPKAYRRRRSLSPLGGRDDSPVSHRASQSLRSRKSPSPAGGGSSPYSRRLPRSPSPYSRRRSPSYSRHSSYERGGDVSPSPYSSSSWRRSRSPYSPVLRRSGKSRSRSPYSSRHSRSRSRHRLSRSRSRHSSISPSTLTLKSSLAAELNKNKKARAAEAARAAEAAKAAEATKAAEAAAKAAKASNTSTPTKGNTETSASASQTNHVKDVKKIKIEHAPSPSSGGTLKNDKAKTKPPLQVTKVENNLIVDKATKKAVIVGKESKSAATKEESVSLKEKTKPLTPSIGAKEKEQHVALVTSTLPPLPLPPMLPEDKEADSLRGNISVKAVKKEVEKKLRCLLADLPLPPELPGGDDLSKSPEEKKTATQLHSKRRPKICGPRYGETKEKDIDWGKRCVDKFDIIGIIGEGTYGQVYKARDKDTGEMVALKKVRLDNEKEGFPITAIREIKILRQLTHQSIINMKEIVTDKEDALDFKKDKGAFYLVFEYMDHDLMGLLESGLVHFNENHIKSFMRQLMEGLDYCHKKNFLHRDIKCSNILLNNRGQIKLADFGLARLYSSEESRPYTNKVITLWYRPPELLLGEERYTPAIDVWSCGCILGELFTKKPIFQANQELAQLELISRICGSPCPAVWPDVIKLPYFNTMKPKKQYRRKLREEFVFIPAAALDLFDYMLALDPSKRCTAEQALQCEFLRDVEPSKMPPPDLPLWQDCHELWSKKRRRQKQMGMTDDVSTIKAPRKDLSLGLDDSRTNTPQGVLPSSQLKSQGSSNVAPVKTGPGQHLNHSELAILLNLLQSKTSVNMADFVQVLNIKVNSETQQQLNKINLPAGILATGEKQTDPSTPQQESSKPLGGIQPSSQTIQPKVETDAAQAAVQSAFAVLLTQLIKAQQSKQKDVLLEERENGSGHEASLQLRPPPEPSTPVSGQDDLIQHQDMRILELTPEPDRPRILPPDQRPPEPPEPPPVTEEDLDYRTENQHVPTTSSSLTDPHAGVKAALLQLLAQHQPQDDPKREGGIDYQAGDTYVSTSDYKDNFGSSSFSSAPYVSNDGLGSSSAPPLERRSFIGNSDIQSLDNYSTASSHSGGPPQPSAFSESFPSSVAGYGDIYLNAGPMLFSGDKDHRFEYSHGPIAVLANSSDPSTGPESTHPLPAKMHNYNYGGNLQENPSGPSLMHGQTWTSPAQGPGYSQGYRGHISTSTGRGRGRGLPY
UniProt P50750: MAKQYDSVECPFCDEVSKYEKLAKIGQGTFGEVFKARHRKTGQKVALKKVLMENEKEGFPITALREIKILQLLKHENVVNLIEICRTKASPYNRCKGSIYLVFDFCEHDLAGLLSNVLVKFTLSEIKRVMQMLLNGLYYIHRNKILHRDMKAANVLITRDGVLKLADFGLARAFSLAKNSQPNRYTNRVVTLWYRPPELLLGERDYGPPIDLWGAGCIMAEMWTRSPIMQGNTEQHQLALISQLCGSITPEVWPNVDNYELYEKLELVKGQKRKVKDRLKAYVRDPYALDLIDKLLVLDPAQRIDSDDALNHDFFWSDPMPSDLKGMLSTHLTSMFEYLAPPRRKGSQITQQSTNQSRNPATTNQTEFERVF
UniProt O75909: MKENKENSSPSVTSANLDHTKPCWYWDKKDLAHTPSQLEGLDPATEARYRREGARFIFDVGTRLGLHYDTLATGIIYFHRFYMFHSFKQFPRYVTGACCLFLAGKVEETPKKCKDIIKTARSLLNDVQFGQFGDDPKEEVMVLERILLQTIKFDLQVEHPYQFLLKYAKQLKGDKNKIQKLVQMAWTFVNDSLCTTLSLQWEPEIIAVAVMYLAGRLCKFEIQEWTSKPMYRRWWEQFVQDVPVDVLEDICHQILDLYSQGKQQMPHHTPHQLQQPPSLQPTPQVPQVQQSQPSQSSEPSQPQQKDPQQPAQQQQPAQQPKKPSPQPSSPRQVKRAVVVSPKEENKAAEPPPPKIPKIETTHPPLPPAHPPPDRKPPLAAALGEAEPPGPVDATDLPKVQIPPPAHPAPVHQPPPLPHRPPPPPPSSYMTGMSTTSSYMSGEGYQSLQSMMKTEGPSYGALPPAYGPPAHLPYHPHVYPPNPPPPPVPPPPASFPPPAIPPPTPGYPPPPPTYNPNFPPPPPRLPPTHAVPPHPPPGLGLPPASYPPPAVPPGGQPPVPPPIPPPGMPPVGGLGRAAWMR
UniProt P49336: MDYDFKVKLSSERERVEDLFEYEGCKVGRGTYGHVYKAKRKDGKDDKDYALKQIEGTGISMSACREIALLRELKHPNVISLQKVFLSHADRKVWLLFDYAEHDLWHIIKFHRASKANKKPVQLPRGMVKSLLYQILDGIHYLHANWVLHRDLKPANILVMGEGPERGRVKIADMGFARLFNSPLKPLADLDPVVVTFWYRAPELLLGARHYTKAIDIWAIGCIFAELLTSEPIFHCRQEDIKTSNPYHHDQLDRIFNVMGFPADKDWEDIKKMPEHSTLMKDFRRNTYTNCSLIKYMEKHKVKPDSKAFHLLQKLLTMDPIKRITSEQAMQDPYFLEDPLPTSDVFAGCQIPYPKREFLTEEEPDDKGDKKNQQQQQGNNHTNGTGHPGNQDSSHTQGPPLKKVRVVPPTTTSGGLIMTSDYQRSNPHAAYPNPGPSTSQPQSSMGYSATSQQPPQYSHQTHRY
UniProt O60563, residues 1-266: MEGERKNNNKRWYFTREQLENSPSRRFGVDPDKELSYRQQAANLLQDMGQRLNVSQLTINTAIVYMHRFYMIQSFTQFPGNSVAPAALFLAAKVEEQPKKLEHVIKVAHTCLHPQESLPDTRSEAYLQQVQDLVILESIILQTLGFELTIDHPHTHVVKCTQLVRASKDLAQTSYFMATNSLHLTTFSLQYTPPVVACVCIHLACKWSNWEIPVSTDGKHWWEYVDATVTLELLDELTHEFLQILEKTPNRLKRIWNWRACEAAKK
UniProt P21127: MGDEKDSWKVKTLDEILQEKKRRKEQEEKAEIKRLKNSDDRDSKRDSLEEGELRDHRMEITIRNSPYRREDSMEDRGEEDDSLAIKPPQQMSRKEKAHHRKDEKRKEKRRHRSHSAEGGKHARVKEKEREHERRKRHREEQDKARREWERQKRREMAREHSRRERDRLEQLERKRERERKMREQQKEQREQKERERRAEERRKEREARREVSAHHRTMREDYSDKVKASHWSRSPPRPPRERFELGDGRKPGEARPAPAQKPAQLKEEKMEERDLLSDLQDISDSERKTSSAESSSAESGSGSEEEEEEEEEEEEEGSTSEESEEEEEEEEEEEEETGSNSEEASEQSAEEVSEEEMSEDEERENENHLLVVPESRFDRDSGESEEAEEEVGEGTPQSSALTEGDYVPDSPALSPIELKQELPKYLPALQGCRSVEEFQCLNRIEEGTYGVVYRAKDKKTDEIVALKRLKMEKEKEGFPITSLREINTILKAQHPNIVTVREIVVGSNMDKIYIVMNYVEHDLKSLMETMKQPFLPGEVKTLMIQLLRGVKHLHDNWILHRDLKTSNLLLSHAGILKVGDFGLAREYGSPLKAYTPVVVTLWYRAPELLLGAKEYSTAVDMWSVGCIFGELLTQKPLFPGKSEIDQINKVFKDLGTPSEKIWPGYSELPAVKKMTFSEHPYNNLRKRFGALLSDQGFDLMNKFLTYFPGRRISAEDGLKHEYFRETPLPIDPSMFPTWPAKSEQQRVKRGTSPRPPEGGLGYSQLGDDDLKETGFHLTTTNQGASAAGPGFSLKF
UniProt Q9Y5B9: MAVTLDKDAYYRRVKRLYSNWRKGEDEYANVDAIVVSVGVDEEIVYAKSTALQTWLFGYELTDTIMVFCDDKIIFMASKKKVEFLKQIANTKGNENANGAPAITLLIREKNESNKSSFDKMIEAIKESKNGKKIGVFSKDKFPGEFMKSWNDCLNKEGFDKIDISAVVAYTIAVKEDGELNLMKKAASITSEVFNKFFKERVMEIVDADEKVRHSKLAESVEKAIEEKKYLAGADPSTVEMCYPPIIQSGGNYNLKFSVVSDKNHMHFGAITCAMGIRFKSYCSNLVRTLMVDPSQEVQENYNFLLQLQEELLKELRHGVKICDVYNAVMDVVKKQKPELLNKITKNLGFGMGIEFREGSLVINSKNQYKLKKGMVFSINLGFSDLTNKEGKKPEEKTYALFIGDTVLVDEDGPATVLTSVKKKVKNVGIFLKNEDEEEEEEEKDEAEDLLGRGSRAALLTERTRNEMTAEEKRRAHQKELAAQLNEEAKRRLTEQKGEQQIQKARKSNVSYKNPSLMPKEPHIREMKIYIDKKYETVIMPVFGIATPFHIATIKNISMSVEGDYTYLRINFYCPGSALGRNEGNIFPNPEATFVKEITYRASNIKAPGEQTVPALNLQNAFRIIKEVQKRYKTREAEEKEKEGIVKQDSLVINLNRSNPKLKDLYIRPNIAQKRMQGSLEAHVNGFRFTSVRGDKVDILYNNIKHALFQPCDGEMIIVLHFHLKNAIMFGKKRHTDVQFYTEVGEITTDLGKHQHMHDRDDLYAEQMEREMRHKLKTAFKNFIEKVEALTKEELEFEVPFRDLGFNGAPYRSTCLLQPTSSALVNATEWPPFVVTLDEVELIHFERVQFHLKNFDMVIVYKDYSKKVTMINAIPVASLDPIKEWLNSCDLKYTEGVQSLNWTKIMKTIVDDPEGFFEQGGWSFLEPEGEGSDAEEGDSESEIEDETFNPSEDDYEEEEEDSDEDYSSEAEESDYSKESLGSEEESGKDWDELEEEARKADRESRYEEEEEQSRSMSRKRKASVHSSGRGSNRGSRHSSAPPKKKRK
UniProt Q15131: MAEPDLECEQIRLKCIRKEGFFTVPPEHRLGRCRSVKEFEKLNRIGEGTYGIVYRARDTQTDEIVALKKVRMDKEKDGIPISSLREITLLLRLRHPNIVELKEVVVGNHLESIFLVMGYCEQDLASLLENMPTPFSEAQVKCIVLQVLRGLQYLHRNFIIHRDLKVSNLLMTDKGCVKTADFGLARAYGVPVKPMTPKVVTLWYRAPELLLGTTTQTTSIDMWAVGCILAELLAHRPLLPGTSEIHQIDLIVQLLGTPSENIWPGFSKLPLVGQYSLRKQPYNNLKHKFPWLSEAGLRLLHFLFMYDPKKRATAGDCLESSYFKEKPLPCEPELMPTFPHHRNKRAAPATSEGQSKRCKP

Assay [1] addresses His-ICP22^CCR (HSV-1) (UniProt P04485). Description: pull-down; His-ICP22^CCR (comparison His-IpgC) on nickel beads, HeLa nuclear extract diluted 1:1 with IP buffer, overnight; Western blot; only the target purified. In general terms: A western blot detects proteins with antibodies after separation by electrophoresis.
Assay [2] has the same target. Briefly: pull-down; His-ICP22^CCR held on nickel beads; GST-tagged proteins from E. coli eluted with reduced glutathione and incubated one by one; Western blot with GST and His-tag antibodies; both purified.
For assay [3], the target named is T1, Flag-ICP22 full length (HSV-1 immediate-early protein ICP22) (HSV-1) (UniProt P04485).
T1 sequence: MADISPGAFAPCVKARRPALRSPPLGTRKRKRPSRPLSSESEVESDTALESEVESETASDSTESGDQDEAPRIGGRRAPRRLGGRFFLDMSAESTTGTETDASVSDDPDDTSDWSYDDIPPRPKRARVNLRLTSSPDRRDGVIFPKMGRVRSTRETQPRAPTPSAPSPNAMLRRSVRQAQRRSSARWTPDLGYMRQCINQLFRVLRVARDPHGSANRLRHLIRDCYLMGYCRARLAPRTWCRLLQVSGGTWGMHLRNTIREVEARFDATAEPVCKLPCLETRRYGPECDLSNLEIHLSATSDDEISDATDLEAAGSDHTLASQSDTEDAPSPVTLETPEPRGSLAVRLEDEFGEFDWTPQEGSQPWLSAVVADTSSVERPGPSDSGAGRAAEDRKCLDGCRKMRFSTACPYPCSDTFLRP
Description: co-IP.

Assay [4] deals with Flag-ICP22^CCR (core conserved region of HSV-1 ICP22) (HSV-1) (UniProt P04485). Description: co-IP.
The next assay concerns the target Flag-VP16^CORE (HSV-1) (UniProt P06492). Description: co-IP.

Results are given in words; binding and its absence hold for the method and conditions named. For some of these results: In cells and extracts the contact can be indirect. Some results given as binding are weak or reduced against the parent protein; the word gives no strength. For some of these results: Sequences can lack the tags named with a protein.

With CDK13 (from UniProt Q14004 1-1512), in the assay with His-ICP22^CCR (HSV-1) [1], the binding result was “binds”.

Take GST-CDK9^FL (from UniProt P50750 1-372): the binding result in the assay with His-ICP22^CCR (HSV-1) [2] is “binds weakly”.

Regarding Cyclin K (from UniProt O75909 1-580), the binding entry (in assay [3]; in assay [4]; with His-ICP22^CCR (HSV-1) [1]) was “binds” throughout. As to CDK8 (from UniProt P49336 1-464), in the assay with His-ICP22^CCR (HSV-1) [1], the binding result is recorded as “no binding”. Regarding “GST-Cyclin T1^1-266 (from UniProt O60563 1-266) (domain or fragment)”, the binding result in the assay with His-ICP22^CCR (HSV-1) [2] was “binds”. CDK9 (from UniProt P50750 1-372): the binding result (with Flag-VP16^CORE (HSV-1); in assay [3]; in assay [4]; in the assay with His-ICP22^CCR (HSV-1) [1]) was “binds” in each case. For the molecule CDK11B (from UniProt P21127 1-795), the binding result with His-ICP22^CCR (HSV-1) [1] is given as “binds”.

In the case of “FACT complex (SPT16 and SSRP1) (from UniProt Q9Y5B9 1-1047; Q08945 1-709)”, the binding result with His-ICP22^CCR (HSV-1) [1] is listed as “binds”. With CDK10 (from UniProt Q15131 1-360), the binding entry with His-ICP22^CCR (HSV-1) [1] is “no binding”.

B1: MEPCE (protein, UniProt Q7L2J0 1-689)
chain: MIEMAAEKEPFLVPAPPPPLKDESGGGGGPTVPPHQEAASGELRGGTERGPGRCAPSAGSPAAAVGRESPGAAATSSSGPQAQQHRGGGPQAQSHGEARLSDPPGRAAPPDVGEERRGGGGTELGPPAPPRPRNGYQPHRPPGGGGGKRRNSCNVGGGGGGFKHPAFKRRRRVNSDCDSVLPSNFLLGGNIFDPLNLNSLLDEEVSRTLNAETPKSSPLPAKGRDPVEILIPKDITDPLSLNTCTDEGHVVLASPLKTGRKRHRHRGQHHQQQQAAGGSESHPVPPTAPLTPLLHGEGASQQPRHRGQNRDAPQPYELNTAINCRDEVVSPLPSALQGPSGSLSAPPAASVISAPPSSSSRHRKRRRTSSKSEAGARGGGQGSKEKGRGSWGGRHHHHHPLPAAGFKKQQRKFQYGNYCKYYGYRNPSCEDGRLRVLKPEWFRGRDVLDLGCNVGHLTLSIACKWGPSRMVGLDIDSRLIHSARQNIRHYLSEELRLPPQTLEGDPGAEGEEGTTTVRKRSCFPASLTASRGPIAAPQVPLDGADTSVFPNNVVFVTGNYVLDRDDLVEAQTPEYDVVLCLSLTKWVHLNWGDEGLKRMFRRIYRHLRPGGILVLEPQPWSSYGKRKTLTETIYKNYYRIQLKPEQFSSYLTSPDVGFSSYELVATPHNTSKGFQRPVYLFHKARSPSH
Consider B1, for which the binding result with His-ICP22^CCR (HSV-1) [1] was “binds”.

B2: Cyclin L1 (protein, UniProt Q9UK58 1-526)
chain: MASGPHSTATAAAAASSAAPSAGGSSSGTTTTTTTTTGGILIGDRLYSEVSLTIDHSLIPEERLSPTPSMQDGLDLPSETDLRILGCELIQAAGILLRLPQVAMATGQVLFHRFFYSKSFVKHSFEIVAMACINLASKIEEAPRRIRDVINVFHHLRQLRGKRTPSPLILDQNYINTKNQVIKAERRVLKELGFCVHVKHPHKIIVMYLQVLECERNQTLVQTAWNYMNDSLRTNVFVRFQPETIACACIYLAARALQIPLPTRPHWFLLFGTTEEEIQEICIETLRLYTRKKPNYELLEKEVEKRKVALQEAKLKAKGLNPDGTPALSTLGGFSPASKPSSPREVKAEEKSPISINVKTVKKEPEDRQQASKSPYNGVRKDSKRSRNSRSASRSRSRTRSRSRSHTPRRHYNNRRSRSGTYSSRSRSRSRSHSESPRRHHNHGSPHLKAKHTRDDLKSSNRHGHKRKKSRSRSQSKSRDHSDAAKKHRHERGHHRDRRERSRSFERSHKSKHHGGSRSGHGRHRR
As to B2, the binding entry with His-ICP22^CCR (HSV-1) [1] is “binds”.
